Literature values in article PMC4554999 (Bioorganic & medicinal chemistry, 2015).

Biological target: rat α4β2-nAChR (Rattus norvegicus, UniProt P09483+P12390)
Settings: 100 μM compound; previously determined value; ref [9]; cited from earlier work

## c1cnc2cc3c(cc2n1)[C@@H]1CNC[C@H]3C1 [varenicline]
  Antagonist Activity (% EC50 ACh remaining at 100 μM) α4β2: 38 ± 2%
